Assay results reported in patent US7416885B2, “Proliferated cell lines and uses thereof” (University of South Florida, priority 2002, dated 2008).

Tested on: murine neural cell lines (CNH, CTb)
[1] = glutamatergic and cholinergic stimuli

Row | Structure (SMILES) | intracellular Ca2+ response | intracellular Ca2+ response [1]
1 | C=C(C)[C@H]1CN[C@H](C(=O)O)[C@H]1CC(=O)O [kainite] | increase in intracellular Ca^2+ | –
2 | CN[C@H](CC(=O)O)C(=O)O [NMDA] | increase in intracellular Ca^2+ | –
3 | Cc1o[nH]c(=O)c1CC(N)C(=O)O (centres unmarked) [AMPA] | increase in intracellular Ca^2+ | –
4 | N[C@@H](CCC(=O)O)C(=O)O [glutamate] | – | increase in intracellular Ca^2+
5 | CN1CCCC1c1cccnc1 (centres unmarked) [nicotine] | – | increase in intracellular Ca^2+

Where two headings read alike, the source gives them in different places.
